Measured values: PMC5912162 (Bioconjugate chemistry, 2010)

Test system: human AsPC1 (G12D) pancreatic cancer xenografts
Conditions: AsPC1 xenograft mice
[1] = 24 h after ~2 nmol probe (80 nmol [111In]DOTA), n = 3

SMILES: O=C([O-])CN1CCN(CC(=O)[O-])CCN(CC(=O)[O-])CCN(CC(=O)[O-])CC1.[111In+3] [[^111In]DOTA, reference compound]
- Total %ID/g of control relative to [111In]nKRAS2 PNA probes (times less) (24 h, Table 2A): 26–83 times
- K/T (kidney/tumor ratio, tissue distribution) [1]: 12.12 ± 3.62
- T/B (tumor/blood ratio, tissue distribution) [1]: 3.18 ± 0.45
- T/M (tumor/muscle ratio, tissue distribution) [1]: 3.40 ± 0.74
